These results are taken from ChEMBL document CHEMBL1201862, “PubChem BioAssay data set” (2004).

Values joined by “and” are separate entries in the source; they are usually repeats but may differ in a detail not shown here. Equal values may be shown once.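 48-hour exposure; five concentrations; linearly interpolated endpoints. GI50 marks 50% less growth.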 Active and inactive are the calls of the source. Cut-off read from the data, not from the text of the source: active = GI50 up to about 1.1 µM and inactive = higher.

The test system of the experiment is NCI-H322M. The experiment in a line: NCI anticancer screen, dose series, 48 h.
With `CC(=O)Nc1ccc2c(c1)/C(=N/c1ccc(C(=O)O)cc1)c1ccccc1-2`, the GI50 is inactive: 69.8 µM.

Consider `COC(=O)c1ccc(CCc2cc(O)c(Br)cc2O)cc1`, for which the GI50 is inactive: 11.6 µM.

Turning to `CSc1cc(N)ccc1/N=N/c1ccc(S(N)(=O)=O)cc1`, the GI50 was inactive: 63.1 µM.

On to `c1ccc(CN2CCC(CNc3ncnc4ccccc34)C2)cc1` (stereo unspecified), for which the GI50 was inactive: 95.5 µM.

Turning to `COc1ccc(-c2[nH]c(=O)n(C3OC(CO)C(O)C(O)C3O)c(=O)c2C#N)cc1` (stereo unspecified), the GI50 is inactive: > 100 µM.

In the case of `N#Cc1ccc(/N=C(/NCC(=O)O)Nc2ccc3ccccc3c2)cc1`, the GI50 was inactive: > 10 µM.

Turning to `NNC(=O)CC(=O)Nc1ccccc1F`, the GI50 was inactive: > 100 µM.

Regarding `Cc1nsc2cc(Cl)n(C)c(=O)c12`, the GI50 is inactive: > 100 µM.

Consider `CCc1ccc(Nc2cc(=O)[nH]c(SCc3ccccc3)n2)cc1`, for which the GI50 is inactive: > 100 µM.

As to `O=[N+]([O-])c1ccc(-c2csc3nc(-c4ccccc4)nn23)cc1`, the GI50 is inactive: > 100 µM.

With `Cc1cn(C2CCC(/C=N\O)O2)c(=O)[nH]c1=O` (stereo unspecified), the GI50 is inactive: > 100 µM.

In the case of `COc1ccc(/C=C(/C#N)C(N)=O)cc1OC`, the GI50 was inactive: > 100 µM.

In the case of `O=C(CN1CCN(C(=O)OCc2ccccc2)CCN(CC(=O)N2CCCCC2)CCN(C(=O)OCc2ccccc2)CC1)N1CCCCC1`, the GI50 was inactive: 21.1 µM.

`Nc1nc(N)c(C2=CCNCC2)c(=O)[nH]1`: the GI50 was inactive: > 100 µM.

In the case of `CN1C/C(=C\c2ccccc2)C2=NN(C(N)=S)[C@H](c3ccccc3)[C@@H]2C1`, the GI50 was inactive: > 100 µM.

`COC(=O)c1cc2c(nc1C)-c1ccccc1OS2(=O)=O`: the GI50 is inactive: > 100 µM.

Regarding `C=C(C)C1Cc2cc(C(C)=O)ccc2O1` (stereo unspecified), the GI50 is inactive: > 100 µM.

As to `O=C1c2sccc2C(=O)c2c(CO)csc21`, the GI50 was inactive: 6.44 µM.

For the compound `COc1cc(S(=O)(=O)Nc2nc(-c3ccc(N4C(=O)/C(=C/c5ccccc5)N=C4c4ccccc4)cc3)cs2)ccc1Cl`, the GI50 was inactive: 60.5 µM.

For `O=c1c(=O)c2cscc2c1=O`, the GI50 is inactive: 15.7 µM.

Consider `CCn1cnc2c(NC(C)=O)ncnc21`, for which the GI50 was inactive: > 100 µM.

With `CN(C)CCn1cnc2ncccc2c1=O`, the GI50 was inactive: > 100 µM.

With `Cc1ccc([N+](=O)[O-])cc1NC(=O)C(=O)Cc1nc2ccc(C(=O)c3ccccc3)cc2nc1O`, the GI50 is inactive: > 100 µM.

On to `COc1ccc2c(=O)oc3c(OC)cc(CCN(C)C)c4c(=O)oc1c2c34`, for which the GI50 is inactive: 16.3 µM.

For `CCOC(=O)CCCc1cc(O)c2c(C)c3[nH]c4ccc(Cl)cc4c3c(C)c2n1`, the GI50 is inactive: 49.4 µM.

With `CC(C)(C)OC(=O)N1C(C2=COc3ccccc3O2)=COc2cccnc21`, the GI50 was inactive: 1.83 µM.

Take `CCOC(=O)C1C(=O)C=C(c2cc(C)ccc2O)CC1c1cccc(Br)c1` (stereo unspecified): the GI50 is inactive: 22.3 µM.

Turning to `CN(C)CCOC1(Cc2ccc(F)cc2)CCC(C(C)(C)C)CC1` (stereo unspecified), the GI50 is inactive: 8.79 µM and inactive: 4.41 µM.

On to `CCCCOC(=O)Nc1ccc(S(=O)(=O)Nc2c(Cl)cccc2Cl)cc1`, for which the GI50 was inactive: 47 µM.

For `CC1=CCC(C)=Nc2nc3ccccc3n21`, the GI50 was inactive: > 100 µM.

In the case of `CC(OCc1ccccc1)C(NC(=O)C1CSSCC(NC(=O)C(Cc2ccccc2)NC(=O)OCc2ccccc2)C(=O)NC(Cc2ccccc2)C(=O)NC(Cc2cn(C=O)c3ccccc23)C(=O)NC(CCCCNC(=O)OCc2ccccc2)C(=O)NC(C(C)OCc2ccccc2)C(=O)N1)C(N)=O` (stereo unspecified), the GI50 was inactive: > 68.7 µM.

For the compound `Cc1ccc(-c2c(C#N)c(N)[nH]c(=S)c2C#N)cc1`, the GI50 was inactive: 51.5 µM.

As for `COC1CCC(OS(C)(=O)=O)C(C)O1` (stereo unspecified), the GI50 is inactive: > 10 µM.

As for `C=Cc1nc2nnc(CCCCCCCCc3nnc4nc(C=C)[nH]n34)n2[nH]1`, the GI50 is inactive: > 100 µM.

For `O=[N+]([O-])c1cc2c(c3nonc13)OCCCCO2`, the GI50 is inactive: 16.4 µM.

For `O=C(OCCOC(=O)c1ccc2c(c1)C1(SCCS1)c1ccccc1-2)c1ccc2c(c1)C1(SCCS1)c1ccccc1-2`, the GI50 is inactive: > 100 µM.

For `CCN(CC)c1c(C)c(C(=O)OC)nn1-c1ccccc1`, the GI50 is inactive: > 100 µM.

For `OCCN(CCO)c1ccc2c(C(F)(F)F)cc(C(F)(F)F)nc2n1`, the GI50 was inactive: > 100 µM.

As to `O=C(NCc1ccccc1)C1C(=O)C(=O)N(Cc2ccccc2)C1=O` (stereo unspecified), the GI50 is inactive: > 100 µM.

As for `Fc1cccc(F)c1C1SCc2nc3cc(Cl)ccc3n21` (stereo unspecified), the GI50 is inactive: 22 µM.

Take `CC(C)(C)OC(=O)NC1CC2(C=C(Br)C(=O)C(Br)=C2)OC1=O` (stereo unspecified): the GI50 was inactive: 28.2 µM.

As to `NC1=NS(=O)(=O)Nc2nc(-c3cccs3)[nH]c21`, the GI50 is inactive: > 100 µM.

As for `Cc1cc2c(cn1)C(=O)OCC2`, the GI50 is inactive: > 100 µM.

As to `O=C1CCCCC(=O)OC2(CCCCC2=O)CC1` (stereo unspecified), the GI50 is inactive: > 100 µM.

Regarding `FC(F)(F)c1ccc2c(c1)N(CCCNCCN1CCOCC1)c1ccccc1S2`, the GI50 was inactive: 11.1 µM.

In the case of `C/C(Sc1ccccc1)=C1/CCCN(Cc2ccccc2)C1`, the GI50 is inactive: 33.9 µM.

As for `COC(=O)C1=C(C(=O)OC)SC(=C2c3ccsc3-c3sccc32)S1`, the GI50 is inactive: 59.3 µM.

For `O=C1C2C(C(=O)N1c1ccccc1)C1(c3ccccc3)CCC2(C(=O)c2ccccc2)O1` (stereo unspecified), the GI50 is inactive: > 10 µM.

As to `C1=C(c2ccccc2)SC=C(c2ccccc2)S1`, the GI50 was inactive: 56 µM.

`CC1C(NNc2ccccc2)Oc2cc3c(cc2C1c1ccccc1O)OCO3` (stereo unspecified): the GI50 is inactive: 4.3 µM.

In the case of `Cc1nn(-c2ccccc2)c2nc3c(c(C)nn3-c3ccccc3)c(-c3ccccc3Br)c12`, the GI50 was inactive: > 100 µM.

Regarding `CCOC(=O)C(C)(C)Oc1ccc2c(C)c(-c3ccc(Cl)cc3)c(=O)oc2c1`, the GI50 is inactive: > 100 µM.

Regarding `COc1cc2c(cc1OC)C(CC1=C(c3ccccc3)CN3CCc4cc(OC)c(OC)cc4C3C1)NCC2` (stereo unspecified), the GI50 was inactive: 14.9 µM.

Regarding `CCN(CC)c1nnc(CCCCCCCCc2nnc(N(CC)CC)o2)o1`, the GI50 is inactive: > 100 µM.

Take `NC(Cc1c[nH]c(I)n1)C(=O)O` (stereo unspecified): the GI50 is inactive: > 100 µM.

Turning to `CCC/C(Cl)=N/OC(=O)Nc1cccc(F)c1`, the GI50 is inactive: 17 µM.

Regarding `COc1cc([N+](=O)[O-])c(S(=O)(=O)[O-])cc1-[n+]1nc(C(=O)Nc2ccccc2)nn1-c1ccc([N+](=O)[O-])c(S(=O)(=O)O)c1`, the GI50 is inactive: 28 µM.

Regarding `C=C(C)C(=O)O[C@H]1CC2(CO)O[C@@H]2CC/C(COC(C)=O)=C/C2OC(=O)C(=C)[C@@H]21` (stereo partly specified), the GI50 was inactive: > 100 µM.

Regarding `CCc1ccccc1-n1c2nc(=O)n(C)c(=O)c-2nc2ccccc21`, the GI50 was inactive: 12 µM.

On to `N[C@@H]1CCN(c2c(F)cc3c(=O)c(C(=O)O)cn4c3c2Oc2cc3c(ccc5ccccc53)cc2-4)C1`, for which the GI50 is active: 1.11 µM.

Regarding `O=C(O)c1cncc(C(=O)O)c1`, the GI50 is inactive: > 100 µM.
